The whole screen tested about 420,000 compounds, of which about 64,000 (15%) were called active. This list was built around the results that the source calls inconclusive (neither active nor inactive); the mix of calls is not that of the screen. The call rests on the fitted dose curve; in most records, active means well fitted inhibition curve with a large enough effect; inconclusive means small, poorly fitted or top-dose-only effect; inactive means flat fitted curve, though single readings scatter. Potencies of inconclusive entries are left out as doubtful fits.
Assay: qHTS for Inhibitors of human tyrosyl-DNA phosphodiesterase 1 (TDP1): qHTS in cells in absence of CPT; further: nearly all actives have a fitted effect of over 55% in size
Conditions: DT40 Tdp1-/- hTDP1 cells, no CPT, ATP luminescence, 48 h; activity change, negative = growth inhibition: at 46.2 µM (top of the series) unless noted
Summary of the method: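 Cells were dispensed at 400 per well, compounds added by pin tool, plates incubated ≥48 hr at 37 °C, then CellTiter-Glo added for 30 min at room temperature before luminescence reading. Line: DT40 Tdp1-/- complemented with hTDP1; camptothecin omitted.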
On the % scale 0 is the no-effect control and ±100 the full control effect; potency means the concentration at half of the fitted maximal effect; tags describe the fitted curve by direction and shape.

Compound	Potency	activity change, negative = growth inhibition
COC(=O)c1c(NC(=O)CC2Nc3cc(C)c(C)cc3NC2=O)sc(C)c1C (stereo unspecified)	inconclusive [inhibitor, single point]	
CC(=O)N1N=C(c2ccccc2)CC1c1cccc([N+](=O)[O-])c1 (stereo unspecified)	inconclusive [inhibitor, single point]	
Cc1cc(NC(=O)c2cc3cccc([N+](=O)[O-])c3[nH]2)ccc1F	active: 20.6 µM	
CCOC(=O)C(=NC(C)CC)NNc1ccc(Br)cc1 (stereo unspecified)	inconclusive [inhibitor, single point]	
CCOC(=O)c1cc(-c2ccc(F)cc2)n(CCC(=O)NCCc2ccc(C)cc2)c1C	active: 20.6 µM	
C/C(=N\Nc1nc(C(C)(C)C)cs1)c1ccc(O)cc1	active: 18.4 µM	
COC(=O)[C@]12CCCCC=C1N(Cc1ccc3c(c1)OCO3)C(=O)[C@H](CC(=O)NCCCN1CCCC1=O)C2	inconclusive [inhibitor, single point]	
CCOc1ccc(-c2cc(-c3nc(-c4cc(OC)c(OC)c(OC)c4)no3)[nH]n2)cc1	active: 9.2 µM	
Cc1ccc(C2CC(c3cccc(Cl)c3)n3nc(N)nc3N2)cc1 (stereo unspecified)	active: 18.4 µM	
Cc1ccc(Oc2ccccc2NC(=O)CN2C(=O)NC3(CCCC3)C2=O)cc1	inconclusive [inhibitor, single point]	
Cc1cc(C)nc(NN2C(=O)/C(=C/c3ccc(O)cc3)SC2=S)n1	inconclusive [inhibitor, partial curve, poor fit]	
COc1ccc(-c2csc(=Nc3c(C)n(C)n(-c4ccccc4)c3=O)n2C(C)(C)C)cc1	inactive	
CCOC(=O)c1ccc2[nH]c(C)cc(=O)c2c1		inconclusive: -31% [inhibitor]
COC(=O)c1sc(-c2ccc(Cl)cc2)cc1NC(=O)c1ccccc1C(=O)O	inconclusive [inhibitor, single point]	
CCc1ccccc1NS(=O)(=O)c1ccc(NC(=O)N2CCCC2)cc1	inconclusive [inhibitor, single point]	
Clc1ccc(CNc2nnnn2-c2ccccc2)c(Cl)c1	inconclusive [inhibitor, partial curve]	
c1ccc(Nc2nc(-c3ccncc3)cs2)cc1	inconclusive [inhibitor, single point]	
Cc1ccccc1-n1c(SCC(=O)N/N=C/C=C/c2ccccc2[N+](=O)[O-])nc2ccccc2c1=O	inconclusive [inhibitor, single point]	
O=c1c2ccccc2oc2nc(-c3ccco3)n(Cc3ccccc3)c(=O)c12	active: 20.6 µM	
Cc1nc2ccc(-c3nc4ccccc4o3)cc2[nH]1		inconclusive: -38% [inhibitor]
Fc1ccc(-c2noc3ncnc(NCC4CCN(Cc5ccc(Cl)cc5)CC4)c23)cc1	active: 13 µM	
Cc1ccc(S(=O)(=O)N2CCSCCSCCSCCSCC2)cc1	inconclusive [inhibitor, single point]	
CN(C(=O)c1cccc(NC(=O)Cc2ccc(NC(=O)C3CCN(C(=O)C4CCCCC4)CC3)cc2)c1)C1CC1	inconclusive [inhibitor, single point]	

Compound	Potency	activity change, negative = growth inhibition
O=C(c1cc(COc2ccc(F)cc2Cl)on1)N1CCSCC1	inactive	
Cc1ccc(-n2c(Cc3cccn3C)nnc2SCC(=O)N2CCc3ccccc32)cc1	inconclusive [inhibitor, single point]	
CCCCc1c(-c2ccccc2)ncn1CCc1ccccc1OC	active: 16.4 µM	
Cn1cccc1Cc1nnc(SCC(=O)N2CCCc3ccccc32)n1-c1ccc(F)cc1	inconclusive [inhibitor, single point]	
Cc1ccccc1-c1noc(-c2ccccc2C(=O)NCC2CCCO2)n1 (stereo unspecified)	active: 18.4 µM	
CSc1ccc(-c2nc(CSCC(=O)N3CCOCC3)c(C)o2)cc1	inconclusive [inhibitor, single point]	
O=[N+]([O-])c1ccc2nc(CN3CCCCC3)[nH]c2c1	inactive	
Cc1ccc(S(=O)(=O)N/N=C/C(C)(C)CO)cc1	inconclusive [inhibitor, single point]	
N#Cc1cccc(C(=O)C(=O)N2CCN(c3ccccc3)CC2)c1	inactive	
O=[N+]([O-])c1cccc(-c2nnc(SCc3cccnc3)o2)c1	inactive	
COc1cc(NC(=O)c2cc(C)nc3c2c(C)nn3-c2ccccc2Cl)cc(OC)c1	active: 23.1 µM	
O=c1[nH]c2ccccc2cc1-c1nnn(-c2ccccc2)n1	inconclusive [inhibitor, partial curve]	
CCOC(=S)N/C(=N\S(=O)(=O)c1ccc(C)cc1)c1ccccc1	inactive	
CCCCCCCN1CCC(=O)N([C@H](CO)c2ccccc2)CC1	inactive	
CCc1ccc(S(=O)(=O)NCc2cn3ccsc3n2)s1	inconclusive [inhibitor, single point]	
CCn1nnnc1SCC(=O)N1c2ccccc2CCc2ccccc21	inconclusive [inhibitor, single point]	
CCOc1ccccc1NC(=S)NCc1ccco1	inactive	
CCN1CCN(S(=O)(=O)c2cc(OCC(=O)NC3CCCCC3)c(C)cc2Cl)CC1	inconclusive [inhibitor, single point]	
Cc1ccc(-c2csc(N(CCO)CCCn3c(C(F)(F)F)nc4cc(C(F)(F)F)ccc43)n2)cc1	inconclusive [inhibitor, single point]	
OCCn1c(SCCOc2ccccc2F)nc2ccccc21	inconclusive [inhibitor, single point]	
O=C1C=C(c2ccc(-c3ccccc3)c(F)c2)C[C@@H](c2ccc(Cl)cc2)C1	inconclusive [inhibitor, single point]	
CO[C@@]1(NC(=O)CSC[C@@H](N)C(=O)O)C(=O)N2C(C(=O)O)=C(CSc3nnnn3C)CS[C@@H]21	inactive	
Cc1cc(C)c2nc(N3CCC(C(=O)N4CCCC4)CC3)sc2c1	inconclusive [inhibitor, single point]	

Reference: PubChem BioAssay AID686978 (National Center for Advancing Translational Sciences (NCATS), 2013)
